# Test results taken from PubChem BioAssay AID1468 (National Center for Advancing Translational Sciences (NCATS), 2008).
# Screen size: about 280,000 compounds; about 1,100 (0.39%) were called active. The inconclusive results got no clear call from the source; some entries with a clear call stand among them for comparison. Calls follow the shape of the dose curve; as a rule, active = well fitted inhibition curve with a large enough effect; inconclusive = small, poorly fitted or top-dose-only effect, or effect the other way; inactive = flat fitted curve, though single readings scatter. No potency is given beside an inconclusive call; the fits are too rough.
# Biological target: Microtubule-associated protein tau (Homo sapiens) (UniProt P10636)
# Chain of UniProt P10636 (P10636 whole entry, looked up): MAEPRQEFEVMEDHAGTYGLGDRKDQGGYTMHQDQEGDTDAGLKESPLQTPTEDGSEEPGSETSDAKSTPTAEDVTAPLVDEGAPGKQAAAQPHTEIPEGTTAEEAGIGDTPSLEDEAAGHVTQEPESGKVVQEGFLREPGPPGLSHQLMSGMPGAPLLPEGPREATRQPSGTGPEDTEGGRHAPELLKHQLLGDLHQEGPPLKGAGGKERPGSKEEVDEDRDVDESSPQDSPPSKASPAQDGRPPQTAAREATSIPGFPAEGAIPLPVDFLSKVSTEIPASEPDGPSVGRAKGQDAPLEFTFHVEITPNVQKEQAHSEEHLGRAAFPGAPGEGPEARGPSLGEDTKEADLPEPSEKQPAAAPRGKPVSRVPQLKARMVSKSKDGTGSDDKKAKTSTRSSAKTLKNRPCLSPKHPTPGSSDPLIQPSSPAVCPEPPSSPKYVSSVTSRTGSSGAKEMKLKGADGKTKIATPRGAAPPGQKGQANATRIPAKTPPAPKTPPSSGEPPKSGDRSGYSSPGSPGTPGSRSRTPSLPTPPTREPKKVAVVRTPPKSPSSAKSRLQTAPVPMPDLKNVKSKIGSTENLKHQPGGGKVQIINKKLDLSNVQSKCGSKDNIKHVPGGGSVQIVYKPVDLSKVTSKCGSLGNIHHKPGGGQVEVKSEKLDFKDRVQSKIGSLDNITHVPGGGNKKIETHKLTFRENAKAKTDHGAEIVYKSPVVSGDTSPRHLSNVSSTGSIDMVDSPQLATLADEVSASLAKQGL
# Test: qHTS for Inhibitors of Tau Fibril Formation, Fluorescence Polarization; also: nearly all actives have a fitted effect of over 55% in size
# Conditions: K18 P301L tau heparin fibrillization, Alexa594 FP, 6 h; series mostly up to 57.7 µM
# How it was run: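 Steps: dispense K18 P301L tau (15 uM plus 0.24 uM Alexa 594 tracer, final) in pH 7 sodium acetate; add compound; add heparin (20 uM final); incubate 6 hr, 37 C; add ThT (30 uM final); after 1 hr ambient, read FP.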
# Potency is read from the fitted curve at half-maximal effect; tags tell the direction and shape of the fitted curve.
row,Structure (SMILES),Potency
1,O=c1c(-c2c(O)cc(O)c3c(=O)cc(-c4ccc(O)cc4)oc23)c(-c2ccc(O)cc2)oc2cc(O)cc(O)c12,"inconclusive [inhibitor, partial curve]"
2,CCCCOCCCNC(=O)N[C@H](C(=O)OC)C(C)C,"inconclusive [inhibitor, single point]"
3,CCOC(=O)/C(=N/Nc1ccccc1)Sc1nnc(CCc2ccccc2)n1-c1ccccc1,inactive
4,O=C(Nc1ccc(SC(F)F)cc1)c1ccc2nccnc2c1,inactive
5,CCOc1ccc(OCC)c(Nc2nc3ccc(Cl)cc3n3cnnc23)c1,"inconclusive [activator, full curve, poor fit]"
6,COCC(O)CNc1ccccc1 (stereo unspecified),"inconclusive [activator, single point]"
7,Cc1cc(OCC(=O)N[C@@H](Cc2ccccc2)c2nc3ccccc3[nH]2)ccc1Cl,inactive
8,CC1(C)[N+]([O-])=C2C(=[N+]([O-])C1(C)C)c1ccccc1/C2=N\O,inactive
9,Brc1ccc2nc(SCCOc3ccccc3)[nH]c2c1,active: 28.2 µM
10,Cc1ccc2oc(-c3cc(NC(=O)/C=C/c4ccco4)ccc3Cl)nc2c1,"inconclusive [inhibitor, full curve]"
11,COc1ccc(-c2nnc(SCC(=O)Nc3cccc(Cl)c3)o2)cc1,"inconclusive [inhibitor, partial curve]"
12,CCOc1ccc(NC(=O)c2c(NC(=O)c3cccs3)sc3c2CCC(C(C)(C)C)C3)cc1 (stereo unspecified),"inconclusive [inhibitor, single point]"
13,COC(=O)c1cc(NC(=O)c2ccc(-c3ccc(Cl)cc3Cl)o2)cc(C(=O)OC)c1,"inconclusive [inhibitor, partial curve]"
14,CCOC(=O)c1noc2nc(C)n(Cc3ccc([N+](=O)[O-])cc3)c(=O)c12,inactive
15,COc1ccc(NC(=O)NC(C)c2c(-n3cccc3)sc3c2CCN(C)C3)c(OC)c1 (stereo unspecified),inactive
16,O=C(COc1ccccc1[N+](=O)[O-])N/N=C/c1ccc(O)c([N+](=O)[O-])c1,inactive
17,CN(C(=O)c1cc2nc(-c3ccco3)cc(C(F)(F)F)n2n1)C1CCCCC1,"inconclusive [inhibitor, single point]"
18,COc1ccc(NC(=O)CN(C)C(C)C(=O)N2CCCCC2)cc1 (stereo unspecified),"inconclusive [inhibitor, single point]"
19,O=C1/C(=C/c2ccco2)SC(=S)N1C1CCS(=O)(=O)C1 (stereo unspecified),"inconclusive [inhibitor, single point]"
20,Cc1sc(-c2ccccn2)nc1OC(=O)c1ccc(F)cc1F,"inconclusive [inhibitor, single point]"
21,COc1ccccc1-c1nc(-c2ccc(C)nc2OC)no1,"inconclusive [inhibitor, single point]"
22,COC(=O)c1cc(NC(=O)/C=C/c2ccc3c(c2)OCO3)cc(C(=O)OC)c1,"inconclusive [inhibitor, partial curve]"
23,O=c1[nH]ncc(N2CCCCC2)c1Cl,inactive

row,Structure (SMILES),Potency
1,O=C(Cc1cccc2ccccc12)Nc1ccc(OC(F)F)c(Cl)c1,"inconclusive [inhibitor, partial curve, poor fit]"
2,CC(=O)N(CCC(c1ccccc1)c1ccco1)Cc1cccs1 (stereo unspecified),inactive
3,COCc1cc(Sc2ccc(Cl)cc2)nc(C)n1,inactive
4,CC(N)=NCCCC[C@H](N)C(=O)O,inactive
5,CC(C)(C)C1=C(C#N)C(c2cccnc2)C(C#N)=C(N)O1 (stereo unspecified),"inconclusive [inhibitor, single point]"
6,Cc1c(C(=O)Nc2cccc(Cl)c2)oc2ccc(S(=O)(=O)N3CCC4(CC3)OCCO4)cc12,"inconclusive [inhibitor, partial curve]"
7,O=C1CCNc2ccc(-c3ccccc3)cc21,inactive
8,CCc1ccccc1NC(=O)C(=O)NCCc1sc(-c2cccc(F)c2)nc1C,inactive
9,O=C(c1cccnc1)N1N=C(C2CCCCC2)CC1(O)C(F)(F)F (stereo unspecified),inactive
10,O=C(c1ccccc1)c1ccc2nc[nH]c2c1,inactive
11,CC1=C/C(=C/N(C)c2ccccc2)C(=O)S1,"inconclusive [inhibitor, single point]"
12,CCN(CC)S(=O)(=O)c1cc(NC(=O)C(C)N2CCc3ccccc32)ccc1C (stereo unspecified),"inconclusive [activator, single point]"
13,Cc1[nH]c2ccccc2c1SCCNC(=O)c1ccccc1F,inactive
14,Cc1ccc(Nc2nc3nonc3[nH]c2=O)cc1Cl,"inconclusive [inhibitor, partial curve, poor fit]"
15,CNC(=O)c1c(NC(NC(=O)c2ccco2)C(=O)c2ccc(Cl)cc2)sc2c1CCCC2 (stereo unspecified),"inconclusive [inhibitor, partial curve, poor fit]"
16,O=C(Nc1nc(-c2ccccc2)cs1)Nc1ccc(F)cc1F,"inconclusive [inhibitor, single point]"
17,COc1cc2cc(Oc3ccc4ccc(=O)oc4c3)c(=O)oc2cc1O,"inconclusive [inhibitor, single point]"
18,COc1ccc2c(c1OC)C(Cc1ccccc1)N1CCc3cc4c(cc3C1C2)OCO4 (stereo unspecified),"inconclusive [inhibitor, single point]"
19,O=C(Nc1ccc(F)c(Cl)c1)N1CCC(CN2CCc3ccccc3C2)CC1,"inconclusive [inhibitor, single point]"
20,Cn1c(N)c(C(=O)Nc2c(Cl)cccc2Cl)sc1=S,"inconclusive [inhibitor, single point]"
21,COc1ccc(CNC(=O)C/C(C)=N/NC(=O)COc2cccc(C)c2)cc1,"inconclusive [inhibitor, full curve, poor fit]"
22,Cc1cccc(-n2ncc3c(NCc4cccs4)ncnc32)c1,"inconclusive [inhibitor, partial curve]"
23,CCOc1ccc(NC(=O)c2c(NC(=O)c3ccccc3Br)sc3c2CCC(C)C3)cc1 (stereo unspecified),"inconclusive [inhibitor, partial curve]"
